The whole screen tested about 310,000 compounds, of which about 14,000 (4.5%) showed an effect of 50% or more. Effects have a minus sign here. Some of the results follow.
Molecular target: human ether-à-go-go-related gene (hERG) potassium channel (human, UniProt Q12809)
Assay: primary screen, population patch clamp on CHO cells stably expressing hERG
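Note: peak tail current of the secondary pulse compared with the same well before compound.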

Chain of human ether-à-go-go-related gene (hERG) potassium channel (Q12809 whole entry, looked up): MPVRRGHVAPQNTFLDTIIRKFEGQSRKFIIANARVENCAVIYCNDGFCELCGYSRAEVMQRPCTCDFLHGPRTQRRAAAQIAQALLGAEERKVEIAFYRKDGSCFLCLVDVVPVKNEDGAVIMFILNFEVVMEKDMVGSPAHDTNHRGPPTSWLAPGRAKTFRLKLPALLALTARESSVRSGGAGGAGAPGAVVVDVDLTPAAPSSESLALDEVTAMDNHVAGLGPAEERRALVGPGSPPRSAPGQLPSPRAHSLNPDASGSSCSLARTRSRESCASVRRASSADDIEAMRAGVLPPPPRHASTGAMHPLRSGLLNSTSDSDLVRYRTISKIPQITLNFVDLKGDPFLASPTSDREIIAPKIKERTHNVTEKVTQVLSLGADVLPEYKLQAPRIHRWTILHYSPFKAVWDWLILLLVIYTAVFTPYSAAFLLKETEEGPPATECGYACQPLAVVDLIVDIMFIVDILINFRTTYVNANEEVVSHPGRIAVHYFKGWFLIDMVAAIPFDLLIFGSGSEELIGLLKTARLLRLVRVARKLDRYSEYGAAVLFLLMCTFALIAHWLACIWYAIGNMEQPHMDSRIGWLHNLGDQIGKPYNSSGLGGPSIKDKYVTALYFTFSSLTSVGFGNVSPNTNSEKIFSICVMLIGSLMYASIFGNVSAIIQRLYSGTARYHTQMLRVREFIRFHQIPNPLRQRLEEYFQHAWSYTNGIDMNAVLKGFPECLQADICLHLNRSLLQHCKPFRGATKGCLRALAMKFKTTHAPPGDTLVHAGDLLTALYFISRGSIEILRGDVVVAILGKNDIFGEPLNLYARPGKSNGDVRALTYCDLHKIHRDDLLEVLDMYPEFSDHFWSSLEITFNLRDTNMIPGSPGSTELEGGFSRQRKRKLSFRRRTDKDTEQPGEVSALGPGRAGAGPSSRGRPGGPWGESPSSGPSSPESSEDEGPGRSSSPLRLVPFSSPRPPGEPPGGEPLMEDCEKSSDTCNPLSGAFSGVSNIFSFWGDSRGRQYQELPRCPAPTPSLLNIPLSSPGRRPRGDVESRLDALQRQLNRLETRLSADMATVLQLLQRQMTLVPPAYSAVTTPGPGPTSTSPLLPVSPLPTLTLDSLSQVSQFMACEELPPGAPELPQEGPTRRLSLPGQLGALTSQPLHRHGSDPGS

Row | SMILES | hERG current change (%, negative = inhibition) at 10uM [%]
1 | O=C(CSc1nnc2c(n1)[nH]c1ccc(F)cc12)N1CCOCC1 | 5.63
2 | CC(C)(O)C#Cc1ccc(CN2CCC(CO)(CCc3ccccc3)CC2)cc1 | -39.8
3 | CCCC12CN3CC(CCC)(CN(C1)C3c1ccco1)C2=O (stereo not shown) | 6.54
4 | O=C(CCCCCN1C(=O)[C@@H]2Cc3ccccc3CN2C1=O)Nc1ccccc1F | 3.4
5 | COCc1[nH]c(=S)c(C#N)cc1C(=O)OC | 13.3
6 | O=C(CSc1ccccn1)c1ccc2c(c1)OCO2 | 0.963
7 | COc1cccc(NS(=O)(=O)c2ccc3c(c2)n(C)c(=O)c(=O)n3C)c1 | -6.59
8 | COc1ccc(C2Nc3ccccc3C(=O)N2NS(=O)(=O)c2ccccc2)c(OC)c1 (stereo not shown) | 11.1
9 | CN(C(=O)c1ccco1)c1nc(CC(=O)Nc2ccccc2)cs1 | -21.1
10 | Cl.O=C(CCN1CCc2ccccc2C1)Nc1ccc(F)c(F)c1 | -49.4
11 | CN(CCO)CC(O)CN(c1ccccc1)c1ccccc1.Cl (stereo not shown) | -52.1
12 | COC(=O)N/N=C/c1cc(C)n(-c2cccc3ccccc23)c1C | -14
13 | Cc1ccc(CN2CCN(/N=C/c3ccc(O)c(O)c3)CC2)cc1 | -21.7
14 | O=C(NCC(c1ccco1)N1CCN(c2ccccc2)CC1)c1ccco1 (stereo not shown) | -6.12
15 | O=C(CCCOc1ccc(Cl)cc1Cl)N1CCCc2ccccc21 | -15.5
16 | Cc1cc(N2CCN(c3ccccc3)CC2)n2cc(-c3ccccc3)nc2n1 | -75.3
17 | CCCCCCCCC(=O)NNC(=O)c1c(O)c2ccccc2n(CC)c1=O | 11.1
18 | CCC1(c2ccc(F)cc2)NC(=O)N(CC(=O)c2cc(C)n(C3CC3)c2C)C1=O (stereo not shown) | -22.5
19 | CCCc1cc(C(=O)Nc2ccc(C(=O)OC)cc2)cs1 | 5.28
20 | N/C(CN1CCCCC1)=N\S(=O)(=O)c1cc(Cl)cc(Cl)c1 | 22.1
21 | CC(C)OCCCNc1ncc2c(n1)CC(c1ccc(N(C)C)cc1)CC2=O (stereo not shown) | 3.92
22 | Cc1ccc(C(=O)N(c2ccccn2)C(C)c2ccco2)cc1 (stereo not shown) | -0.464

Row | SMILES | hERG current change (%, negative = inhibition) at 10uM [%]
23 | Cc1cc(C)n(-c2ncnc3sc4c(c23)CC(C)CC4)n1 (stereo not shown) | 40.6
24 | Cc1cc(C)cc(N2CCCn3c2nc2c3c(=O)n(CC(=O)OCc3ccccc3)c(=O)n2C)c1 | -29.9
25 | O=C(N/N=C\c1ccc(-c2ccc([N+](=O)[O-])cc2)o1)c1ccc2c(c1)OCO2 | 3.43
26 | CC(NCCc1ccc(S(N)(=O)=O)cc1)C(=O)NCCc1ccc(F)cc1.O=C(O)C(=O)O (stereo not shown) | 0.754
27 | Cc1ccc(C(c2sc3nc(C)nn3c2O)N2CCN(C(=O)c3ccco3)CC2)cc1 (stereo not shown) | -31.4
28 | COc1ccc(-c2nc3ccccc3c(=O)n2N)cc1 | -13.7
29 | COc1ccccc1Nc1nc(N)nc(CSc2nncn2C)n1 | 6.64
30 | CCC(OCC(O)CN1CCN(CCN2C(=O)c3cccc4cccc(c34)C2=O)CC1)c1ccccc1.Cl (stereo not shown) | -58.4
31 | CCC1CCCCN1S(=O)(=O)c1ccc(-n2cnnn2)c(C)c1 (stereo not shown) | 19.8
32 | CCCCN(C(=O)CCCSc1nc2ccccc2[nH]1)c1c(N)n(Cc2ccccc2)c(=O)[nH]c1=O | -29.3
33 | Cn1c(N)c(C(=O)COC(=O)c2ccnc3ccccc23)c(=O)n(C)c1=O | 3.11
34 | NS(=O)(=O)c1ccc(NC(=O)COc2ncnc3sccc23)cc1 | 3.94
35 | Cc1ccc(NS(=O)(=O)c2cn(C)c(=O)n(C)c2=O)cc1C | 9.41
36 | Cc1noc(C)c1CSCC(=O)Nc1nc2ccc(Oc3ccccc3)cc2s1 | -13.6
37 | Cc1ccc(NC(=O)/C(=C\c2ccc([N+](=O)[O-])cc2)NC(=O)c2ccccc2)cc1 | -38.6
38 | CCC(C)[C@H]1CNCCN1CC1(c2ccccc2)CC1 (stereo partly shown) | 12.1
39 | O=C(NCc1ccncc1)c1ccc(N2CCCC2)c([N+](=O)[O-])c1 | -23.3
40 | Cc1nn(Cc2noc(C(=O)NC3CCC(C)CC3)n2)c(C)c1Br (stereo not shown) | 18.9
41 | COc1ccc(C2=NOC(C(=O)N3CCCCCC3)C2)cc1OC (stereo not shown) | -21.6
42 | CC(OC(=O)c1ccc2ccccc2n1)C(=O)c1ccccc1 (stereo not shown) | -30
43 | CCCC1(C(=O)OCC)NC(c2ccc(O)cc2)C2C(=O)N(c3ccc4c(c3)OCCO4)C(=O)C21 (stereo not shown) | -2.64
44 | CN(C)c1cc[n+](/C(C(=S)Nc2ccc(SC(F)F)cc2)=C(/[O-])c2ccccc2)cc1 | 2.92

Row | SMILES | hERG current change (%, negative = inhibition) at 10uM [%]
45 | COc1ccc(OC)c(NC(=O)C(CCSC)NS(=O)(=O)c2cccs2)c1 (stereo not shown) | -25.6
46 | CC(=O)C[C@H](O)CC(=O)[C@H]1OC(=O)CC/C=C\Cc2ccccc21 | 14.9
47 | CC(=O)Nc1ccc(Nc2nc(Cl)nc(Nc3ccc(NC(C)=O)cc3)n2)cc1 | 10
48 | CCC(CC)C(=O)N1CC(=O)Nc2ccc(F)cc2C1c1ccccc1 (stereo not shown) | -11.4
49 | CCOC(=O)CC1=NS(=O)(=O)c2ccccc2N1 | 1.76
50 | O=C(NCc1ccc2c(c1)OCO2)C1CCC(CNS(=O)(=O)c2ccccc2)CC1 (stereo not shown) | -7.84
51 | CC[C@@H](C)CN1C(=O)N[C@@H](CCc2ccccc2)C(C(C)=O)=C1C | -10.2
52 | O=C(CN1C(=O)c2ccccc2S1(=O)=O)Nc1ccccc1 | -3.55
53 | O=C(Nc1nccs1)C1CCCN1S(=O)(=O)c1cccc2cccnc12 (stereo not shown) | 0.177
54 | O=C(c1ccccc1)N(Cc1nc2ccccc2c(=O)[nH]1)C1CCCCC1 | 1.35
55 | COc1cc(CNCCO)cc(Br)c1OCc1cccs1.Cl | -8.81
56 | CCOc1ccccc1N(CC(=O)NC(C)(C)C)C(=O)CCC(=O)Nc1nccs1 | -4.92
57 | CC(=O)Oc1cccc(/C=N\NC(=O)C(=O)N/N=C/c2cccc(OC(C)=O)c2)c1 | 2.4
58 | CC(C)NC(=O)N(Cc1ccccc1)Cc1cccs1 | 0.639
59 | CC(NS(=O)(=O)c1c(N)n(C)c(=O)n(C)c1=O)c1ccccc1 (stereo not shown) | 20.7
60 | CC(=O)Nc1ccc(/C=N/Nc2ccc(C(=O)c3c(C)cc4ccccn34)cc2[N+](=O)[O-])cc1 | 8.94
61 | C=CCn1c(O)c(N=Nc2nc3ccccc3c(=O)n2-c2ccccc2)c2ccccc21 | 10.5
62 | Cc1cccc(C(CC(=O)NCc2ccco2)c2ccccc2)c1O (stereo not shown) | -19.1
63 | COc1cc(OC)c2c(=O)cc(-c3cccnc3)oc2c1 | 12.1
64 | COc1ccc(OC)c(/C=C2\SC(=S)N(NS(=O)(=O)c3ccc(C)cc3)C2=O)c1 | -9.36
65 | Cc1c(C(=O)OCC(=O)NCc2ccccc2)oc2ccccc12 | 11.3
66 | COc1ccc([N+](=O)[O-])cc1NC(=O)C(C)OC(=O)c1cccnc1 (stereo not shown) | -42.1

Row | SMILES | hERG current change (%, negative = inhibition) at 10uM [%]
67 | O=C(NCCCCc1ccccc1)c1cccc([N+](=O)[O-])c1 | -45.6
68 | COCCCNC(=O)c1ccccc1N(Cc1ccccc1)S(=O)(=O)c1ccc(OC)cc1 | -4.75
69 | O=C(NC12CCC(O)C(SC1)/C2=N/O)c1ccccc1 (stereo not shown) | 13
70 | CC(C)CNC(=O)CSc1nc2nn(-c3ccccc3)c(=O)c-2c2n1CCCCC2 | -18
71 | O=C(CSc1nnc(Cn2c(=O)sc3ccccc32)n1-c1ccccc1)NCC1CCCO1 (stereo not shown) | -0.314
72 | COC(=O)[C@@]1(Cc2ccccc2)C=C[C@@H](C)N1C(C)=O | 2.06
73 | CSCCC(NC(=O)c1ccc([N+](=O)[O-])cc1Cl)C(=O)OCC(=O)C12CC3CC(CC(C3)C1)C2 (stereo not shown) | 12
74 | Cc1onc(-c2ccccc2)c1C(=O)Nc1ccc(S(=O)(=O)N2CCOCC2)cc1 | -29.6
75 | O=c1cc(CO)oc(CN2CCCC2)c1O | -2.85
76 | Cc1nc(N2CCN(c3ccccn3)CC2)c2c(C)c(C(=O)Nc3ccc(F)cc3F)sc2n1 | -57.9
77 | O=C(O)c1ccccc1OCCOCCOc1ccccc1C(=O)O | 11.5
78 | S=C(NCc1ccncc1)NC1CCCCC1 | 4.36
79 | CN1CCN(S(=O)(=O)c2ccc(C(=O)Nc3ccccc3)cc2)CC1 | -6.18
80 | C/C(=N\NC(=O)COc1cc(C)cc(C)c1)c1ccc(N2CCOCC2)cc1 | 4.74
81 | COc1cc2c(cc1OC)[C@@H]1Cc3cc4c(cc3[C@H](C2)N1C)OCO4.Cl | -9.39
82 | CS(=O)(=O)N(CC(=O)N1CCOCC1)c1ccc2c(c1)OCO2 | 18.7
83 | CC(C)N1C(=O)c2ccccc2C1C(=O)NC1CCCCCC1 (stereo not shown) | 9.81
84 | COc1ccc(OC)c(NS(=O)(=O)c2cccc3cccnc23)c1 | 20.7
85 | COC(=O)N/N=C/c1ccc(-c2cc(Cl)ccc2Cl)o1 | -11.2
